Some entries of the source have several records that differ or are many. The list is limited to them. Rule for the calls: active = hit-call score of the fitted dose curve at least 0.9, where 1 is the maximum; inactive = score below 0.9. An entry can have further records. Values that stand side by side repeat one measurement (runs, samples, wells, individuals or studies).
Experiments:
[1] = ATG_AP_1_CIS: Attagene CIS-FACTORIAL HepG2 Assay for human Activator Protein 1 (AP-1) (AID 2282931); details: HepG2 Attagene cis-factorial AP-1 reporter mRNA; actives raise or lower the signal
Outline: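 Reporter transcripts were measured 24 h after dosing by RT-PCR and capillary electrophoresis of fluorescent fragments. Cells: HepG2 carrying transfected cis-regulated reporter constructs reading endogenous factor activity. Gain or loss fitted against DMSO.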

[2] = ATG_MRE_CIS: Attagene CIS-FACTORIAL HepG2 Assay for human Metal Responsive Element (MRE) (AID 2282954); details: HepG2 MRE cis-reporter transcription, Attagene multiplex; actives raise or lower the signal
Outline: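 Measured here is mRNA induction from an MRE cis-element reporter in HepG2 after 24 h, quantified by fluorescence of labelled RT-PCR products on capillary electrophoresis; gain- and loss-of-signal fits use DMSO as baseline.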

[3] = ATG_NRF2_ARE_CIS: Attagene CIS-FACTORIAL HepG2 Assay for human Nuclear Factor Erythroid 2 Related Factor 2 (NFR2) response to Antioxidant Response Elements (ARE) (AID 2282992); details: HepG2 Attagene ARE/NRF2 reporter, transcription factor activity; actives raise or lower the signal
Outline: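 Using transiently transfected HepG2 cells exposed for 24 h, reporter mRNA levels were determined by RT-PCR with fluorescent primer extension and capillary electrophoresis, analysed for gain or loss of signal against DMSO.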

In the case of `CC(C)(C)c1ccc(O)c(O)c1`, the AC50 [1] is reported as “active: 59.5, 59, 74.8, 106, 16.5 µM [separate samples]”, the AC50 [2] is reported as “active: 43.4, 30.4, 41.5, 58, 15.4 µM [separate samples]” and the AC50 [3] is reported as “active: 17, 31.7, 36.8, 44, 12.1 µM [separate samples]”.

From PubChem BioAssay (EPA / NIEHS)
